# From PubChem BioAssay AID1030 (National Center for Advancing Translational Sciences (NCATS), 2008)
# Several values for one entry are separate records, joined by “and”; a condition that tells them apart may be missing. Equal values may be shown once. Among all 220,000 compounds or so, about 16,000 (7.3%) were called active. Inconclusive means that the source gave no clear call. Such entries were picked first, then a sample of the others. Calls come from the whole dose curve; as a rule, active = well fitted inhibition curve with a large enough effect (not every such curve was filed as active); inconclusive = small, poorly fitted or top-dose-only effect, or another doubt; inactive = no such curve, though single readings can be large or run the other way. Where the call is inconclusive, the potency comes from a doubtful curve fit.
# Molecular target: Aldehyde dehydrogenase 1A1 (Homo sapiens) (UniProt P00352)
# Assay: qHTS Assay for Inhibitors of Aldehyde Dehydrogenase 1 (ALDH1A1);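 for activity, negative = inhibition: plate controls were no enzyme wells and a reference inhibitor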
# Settings: Purified ALDH1A1, NADH fluorescence, propionaldehyde substrate; series mostly up to 75.3 µM
# Potency is the fitted concentration of half-maximal effect; tags give direction and shape of the fitted curve.
# Sequence of UniProt P00352 (P00352 whole entry, looked up): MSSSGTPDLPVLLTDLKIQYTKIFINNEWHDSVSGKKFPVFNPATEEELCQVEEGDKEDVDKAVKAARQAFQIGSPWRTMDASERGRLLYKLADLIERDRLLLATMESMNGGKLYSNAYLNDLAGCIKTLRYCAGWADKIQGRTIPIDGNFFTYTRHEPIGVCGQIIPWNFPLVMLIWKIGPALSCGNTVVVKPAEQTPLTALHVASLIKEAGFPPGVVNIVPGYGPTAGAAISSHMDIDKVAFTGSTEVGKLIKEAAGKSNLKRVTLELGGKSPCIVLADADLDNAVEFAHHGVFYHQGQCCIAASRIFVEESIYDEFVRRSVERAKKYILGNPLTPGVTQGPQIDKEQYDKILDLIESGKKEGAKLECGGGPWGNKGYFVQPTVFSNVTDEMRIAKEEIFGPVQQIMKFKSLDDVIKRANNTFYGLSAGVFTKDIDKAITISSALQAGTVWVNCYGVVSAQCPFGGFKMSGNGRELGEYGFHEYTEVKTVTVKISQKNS
Compound,Potency,"activity, negative = inhibition"
NNC(=O)CN(CCc1ccccc1)S(=O)(=O)c1ccc(Cl)cc1,"inconclusive: 4.47 µM [inhibitor, full curve]",
CCN(CC)c1ccc(C(=O)NC(=S)Nc2cc(S(=O)(=O)N3CCOCC3)ccc2-n2cncn2)cc1,inactive,
Cc1cc(NCCc2ccccc2F)n2ncnc2n1,"inconclusive: 39.8 µM [inhibitor, single point]",
O=C(CC1NC(=O)NC1=O)Nc1cccc2ccccc12 (stereo unspecified),"inconclusive: 39.8 µM [inhibitor, single point]",
COc1ccccc1NC(=S)N1CCN(C(c2ccccc2)c2ccccc2)CC1,"inconclusive: 1 µM [inhibitor, partial curve, poor fit]",
COc1ccc(Cc2nc3c4c(ncn3n2)Oc2ccc3ccccc3c2C4c2ccc(OC)c(OC)c2)cc1 (stereo unspecified),"inconclusive: 37.7 µM [inhibitor, single point]",
Cn1c(=O)c2c(nc(CN3CCOCC3)n2CCCc2ccccc2)n(C)c1=O,inactive,
COc1ccc2c(c1)O[C@@H](c1ccc3c(c1)OCO3)[C@H](OC(=O)NCCOc1ccccc1)C2=O,inactive,
O=C(NCCCN1CCOCC1)c1ccc(N2CCCC2)c([N+](=O)[O-])c1,"inconclusive: 39.8 µM [inhibitor, single point]",
Cn1ccc(C(=O)OCC(=O)Nc2cccc3ccccc23)n1,inactive,
Cc1ccc2oc(-c3cccc(NC(=O)Cn4cnc5c(=O)n(C)c(=O)n(C)c54)c3)nc2c1,"inconclusive: 35.5 µM [inhibitor, single point]",
Brc1c(CSc2nc3ccccc3s2)nc2ncccn12,"inconclusive: 25.1 µM [inhibitor, partial curve]",
CN(Cc1ccccc1)C(NC(=O)c1ccccc1)C(Cl)(Cl)Cl (stereo unspecified),"inconclusive: 35.5 µM [inhibitor, single point]",
CCN(CC)CCNC(=O)c1cc2ccccc2nc1Cl,"inconclusive: 28.2 µM [inhibitor, single point]",
CO[C@H]1COC(=O)C/C=C\[C@H](C)[C@@H](OC)COC(=O)[C@@H](C)NC(=O)C/C=C\[C@@H]1C,,inactive: 2.41% [at 13.5 µM]
O=C1c2oc3ccccc3c(=O)c2C(c2cccc(O)c2)N1c1ccccn1 (stereo unspecified),"inconclusive: 44.7 µM [inhibitor, single point]",
Oc1ccccc1C=NC1=NN(c2cccc(C(F)(F)F)c2)CC1,active: 22.4 µM,
Cc1ccc(NC(=S)N2CCN(c3ncccn3)CC2)cc1C,"inconclusive: 39.8 µM [inhibitor, single point]",
CCOC(=O)C1=C(NC(=S)NC(=O)c2ccccc2)c2ccccc2CC1(C)C,active: 20 µM,
COc1ccc(C)cc1-n1nnnc1SCc1csc(C)n1,"inconclusive: 28.2 µM [inhibitor, partial curve]",
Cc1ccc(-c2csc(N/N=C/c3ccco3)n2)cc1,inactive,
Cc1cc(C(F)F)n2nc(C(=O)Nc3ccccc3Br)nc2n1,"inconclusive: 31.6 µM [inhibitor, partial curve]",
CCc1ccc(NC(=O)c2ccc3c(c2)C(=O)N(Cc2ccco2)C3=O)cc1,"inconclusive: 8.91 µM [inhibitor, partial curve]",
O=C(COc1ccc(-c2ccccc2)cc1)NN=C1CCCC1,"inconclusive: 25.1 µM [inhibitor, single point]",

Compound,Potency,"activity, negative = inhibition"
COc1ccc(-c2cc3ccccc3n2CC(O)CN2CCC(C)CC2)cc1 (stereo unspecified),"inconclusive: 39.8 µM [inhibitor, single point]",
O=C(NNC(=S)NC(=O)c1sc2ccccc2c1Cl)c1ccc(Cl)cc1,active: 28.2 µM,
CC1CC(=O)C2=C(C1)Nc1ncnn1C2c1ccccc1 (stereo unspecified),active: 17.8 µM,
O=C(O)c1cc(Cl)c2ccccc2c1O,"inconclusive: 28.2 µM [inhibitor, partial curve]",
O=C(CSc1ccc2ccccc2c1)Nc1ccc(S(=O)(=O)Nc2nccs2)cc1,"inconclusive: 39.8 µM [inhibitor, single point]",
COCc1cc(C)nc2oc(C(=O)c3ccccc3)c(N)c12,"inconclusive: 39.8 µM [inhibitor, single point]",
Cc1cc(NC(=O)C2CCCC2)nc2c1c(=O)oc1ccccc12,active: 14.1 µM,
Cc1ccc(CN2CC(C(=O)Nc3ccc4c(C)cc(=O)oc4c3)CC2=O)cc1 (stereo unspecified),"inconclusive: 14.1 µM [inhibitor, partial curve]",
CCCn1nnnc1SCC(=O)c1ccc(NC(C)=O)cc1,"inconclusive: 35.5 µM [inhibitor, single point]",
CC(=O)Nc1ccc(OS(=O)(=O)c2cc(Cl)ccc2C)cc1,"inconclusive: 44.7 µM [inhibitor, single point]",
COc1cccc(NC(=O)C2C3C=CC(O3)C2C(=O)NCc2cccnc2)c1 (stereo unspecified),"inconclusive: 44.7 µM [inhibitor, single point]",
O=C(N/N=C/c1ccco1)c1cc(Br)ccc1OCc1ccccc1,"inconclusive: 39.8 µM [inhibitor, single point]",
COc1ccc(NC(=S)N(CCc2c(C)[nH]c3ccccc23)Cc2cccnc2)cc1,inactive,
Cc1ccc(C(=O)Nc2nc(=O)n(C(=O)C3CC3)s2)cc1,inactive,
Cc1ccc2nc(SCc3ccc([N+](=O)[O-])cc3)[nH]c2c1,"inconclusive: 25.1 µM [inhibitor, partial curve]",
CCOC(=O)C1=C(O)/C(=C/c2ccc(CNC(=O)C(=O)Nc3ccc(C)cc3)o2)N=C1C,inactive,
CN1CCN(c2ncc3ncc(=O)n(CCc4ccccc4)c3n2)CC1,"inconclusive: 23.8 µM [inhibitor, partial curve]",
Cc1ccc(C2C3=C(Nc4[nH]n(-c5ccccc5)c(=O)c42)c2ccccc2C3=O)cc1 (stereo unspecified),active: 11.2 µM,
C=CCc1ccccc1OCC(O)CN1CCN(CCN2C(=O)c3cccc4cccc(c34)C2=O)CC1 (stereo unspecified),"inconclusive: 35.5 µM [inhibitor, single point]",
Cc1cccc([C@H]2[C@@H]3C=CCC[C@@H]3C(=O)N2Cc2ccccc2)c1,active: 28.2 µM,
CCCSc1nc(N2CCOCC2)c2c(c1C#N)CCCC2,active: 14.1 µM,
O=Cc1cn(CCC(=O)O)nc1-c1cccc(Br)c1,"inconclusive: 25.1 µM [inhibitor, single point]",
CCN(CC)CCn1c(SCC(=O)Nc2cccc(OC)c2)nc2c(sc3ccccc32)c1=O,"inconclusive: 25.1 µM [inhibitor, partial curve]",
O=C(COc1ccc(/C=N/NS(=O)(=O)c2ccccc2)cc1)Nc1ccccc1,"inconclusive: 39.8 µM [inhibitor, single point]",

Compound,Potency,"activity, negative = inhibition"
Cc1ccc(C2C3=C(CC(C)(C)CC3=O)N(CCN3CCOCC3)C3=C2C(=O)CC(C)(C)C3)cc1,"inconclusive: 25.1 µM [inhibitor, partial curve]",
CC(C)(C)C1C/C(=C/c2ccccn2)C(=O)/C(=C/c2ccccn2)C1 (stereo unspecified),"inconclusive: 39.8 µM [inhibitor, single point]",
CCS(=O)(=O)C(=C1Nc2ccccc2N1)S(=O)(=O)CC,"inconclusive: 39.8 µM [inhibitor, single point]",
Cc1cc(/C=N/NC(N)=S)c(C)n1-c1ccc(Cl)c(Cl)c1,active: 15.8 µM,
COc1c(C(C)C)oc2cc3oc(=O)ccc3cc12,"inactive and inconclusive: 39.8 µM [inhibitor, single point]",
COc1ccc(C(=O)c2ccc(N3CCOCC3)cc2)c(OC)c1,active: 1.12 µM,
O=C(CSc1nnc(Nc2ccccc2F)s1)Nc1cccc(S(=O)(=O)N2CCCCC2)c1,active: 22.4 µM,
COc1ccc(S(=O)(=O)Oc2cccc(/C=N/N=C3/NC(=O)C(CC(=O)O)S3)c2)cc1 (stereo unspecified),active: 8.91 µM,
S=C1NC(c2cccs2)=CC(c2ccc(Br)cc2)N1 (stereo unspecified),active: 0.398 µM,
CSc1cc(C)c(OCC(=O)Nc2ccc(NC(C)=O)cc2)c(C)c1,"inconclusive: 25.1 µM [inhibitor, partial curve]",
CCCC(=O)N1CCN(c2ccc(NC(=S)NC(=O)c3cccc(C)c3)cc2)CC1,active: 20 µM,
COC(=O)c1cc(C(=O)Nc2ccc(S(=O)(=O)NC(C)(C)C)cc2)cc([N+](=O)[O-])c1,active: 14.1 µM,
CCOC(=O)c1c(NC(=S)NC(C)=O)sc(C)c1C,inactive,
O=C(CC1SC2=NCCN2C1=O)Nc1ccccc1 (stereo unspecified),inactive,
Cc1cccc(-n2c(CNC(=O)c3cccc([N+](=O)[O-])c3C)n[nH]c2=S)c1,inactive,
O=C(Nc1c2c(nn1-c1ccc(F)cc1)CS(=O)C2)C12CC3CC(CC(C3)C1)C2 (stereo unspecified),"inconclusive: 4.47 µM [inhibitor, full curve]",
CN1CCN(CC#CCC2(O)c3ccccc3-c3ccccc32)CC1,inactive,
Cc1cccc(OCC(=O)Nc2ccccc2N2CCN(C(=O)C(C)C)CC2)c1C,"inconclusive: 15.8 µM [inhibitor, partial curve]",
CCNS(=O)(=O)c1ccc(NC(=S)NCc2ccco2)cc1,active: 22.4 µM,
CCCCNC(=O)C1CC(=O)N(c2ccc(OC)cc2)C1c1ccc(OC)cc1 (stereo unspecified),"inconclusive: 12.6 µM [inhibitor, single point]",
O=c1c2c3c(sc2nc2n1CCCCC2)CCC3,"inconclusive: 25.1 µM [inhibitor, partial curve]",
COc1ccc(C)cc1NS(=O)(=O)c1cccc2nonc12,active: 14.1 µM,
O=C(CNC1CCCCC1)NCC1(c2ccccc2)CCCC1,inactive,
